Laboratory results as given in PMC4336329 (PLoS ONE, 2015).
The campaign covered roughly 310,000 compounds. About 14,000 (4.5%) showed an effect of 50% or more. The effect is printed as a negative number. The list shows a part of the results.

molecular target: human ether-à-go-go-related gene (hERG) potassium channel (human, UniProt Q12809); assay: primary screen, population patch clamp on CHO cells stably expressing hERG
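Note: peak tail current of the secondary pulse compared with the same well before compound.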

human ether-à-go-go-related gene (hERG) potassium channel, sequence (Q12809 whole entry, looked up): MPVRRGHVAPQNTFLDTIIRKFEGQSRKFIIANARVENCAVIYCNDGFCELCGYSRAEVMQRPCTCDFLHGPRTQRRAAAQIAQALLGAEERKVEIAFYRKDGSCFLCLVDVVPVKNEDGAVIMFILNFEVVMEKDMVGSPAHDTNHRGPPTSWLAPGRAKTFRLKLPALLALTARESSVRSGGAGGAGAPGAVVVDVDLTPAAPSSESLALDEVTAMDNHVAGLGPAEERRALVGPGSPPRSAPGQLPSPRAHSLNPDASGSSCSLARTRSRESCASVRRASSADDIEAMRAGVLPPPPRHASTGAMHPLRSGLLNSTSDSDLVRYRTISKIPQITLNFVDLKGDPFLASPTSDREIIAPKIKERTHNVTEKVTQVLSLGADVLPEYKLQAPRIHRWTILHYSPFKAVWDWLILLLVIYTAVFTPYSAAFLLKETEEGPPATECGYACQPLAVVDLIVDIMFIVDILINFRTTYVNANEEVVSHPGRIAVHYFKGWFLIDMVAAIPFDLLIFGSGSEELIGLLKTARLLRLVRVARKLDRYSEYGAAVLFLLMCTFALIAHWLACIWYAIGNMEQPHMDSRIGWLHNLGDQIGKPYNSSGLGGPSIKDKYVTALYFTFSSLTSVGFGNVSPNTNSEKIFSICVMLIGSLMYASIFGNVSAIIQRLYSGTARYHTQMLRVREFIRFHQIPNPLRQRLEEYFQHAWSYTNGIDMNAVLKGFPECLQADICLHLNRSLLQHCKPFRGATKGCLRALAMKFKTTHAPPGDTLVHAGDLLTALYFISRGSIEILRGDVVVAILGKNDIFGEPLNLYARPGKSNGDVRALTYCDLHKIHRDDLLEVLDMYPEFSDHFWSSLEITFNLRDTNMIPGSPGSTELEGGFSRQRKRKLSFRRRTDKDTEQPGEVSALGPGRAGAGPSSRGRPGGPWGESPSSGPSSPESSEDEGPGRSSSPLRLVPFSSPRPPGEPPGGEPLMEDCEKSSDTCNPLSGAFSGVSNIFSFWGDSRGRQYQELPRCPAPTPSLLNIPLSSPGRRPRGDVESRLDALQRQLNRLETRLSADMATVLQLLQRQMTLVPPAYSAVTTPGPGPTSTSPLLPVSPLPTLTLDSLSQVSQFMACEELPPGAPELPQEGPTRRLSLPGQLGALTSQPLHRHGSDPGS

Row | SMILES | hERG current change (%, negative = inhibition) at 10uM [%]
1 | CCn1cc(S(=O)(=O)CC(=O)Nc2cccc(C)c2)c2ccccc21 | 5.19
2 | O=c1[nH]c(/C=C\c2ccc(O)c(O)c2)nc(O)c1[N+](=O)[O-] | 16.2
3 | Cc1ccc(O)c(C(=O)c2cnc3c(c2)CN(CCC(C)C)C(=O)N3)c1 | 14.8
4 | Oc1ccc(-n2nnnc2SCc2c(F)cccc2Cl)cc1 | -1.27
5 | O=C(NCc1ccccc1F)c1ccc(S(=O)(=O)N2CCCCCC2)cc1 | -22.4
6 | Cc1nn2c(NCC(C)C)c3c(nc2c1-c1ccccc1)CCC3 | 4.8
7 | Cn1c(CNS(=O)(=O)c2ccc(Cl)cc2)cc(=O)n(C)c1=O | 13
8 | CC1CCN(S(=O)(=O)c2nnc(NC(=O)COc3ccccc3F)s2)CC1 | -7.13
9 | Cc1cc(C)c2c(CC(=O)NC3CCS(=O)(=O)C3)coc2c1 (centres unmarked) | 16.5
10 | CC1CCCCN1C(=O)COC(=O)CNC(=O)c1ccc(Cl)cc1Cl (centres unmarked) | 1.62
11 | COc1ccccc1Nc1nnc(SCC(=O)c2cc(C)n(CC3CCCO3)c2C)s1 (centres unmarked) | -7.74
12 | COC(=O)C1=C(N)OC2=C(C(=O)CCC2)C1c1ccccc1OC (centres unmarked) | -0.702
13 | COc1ccc(N(CC(=O)NCCc2ccc(C)cc2)S(=O)(=O)c2c(C)noc2C)cc1 | -25.9
14 | Clc1ccc(OCc2nc(-c3ccncc3)no2)c(Cl)c1 | -17.3
15 | COc1cc(/C=C/c2noc(-c3ccccc3O)n2)ccc1OC(C)=O | 9.4
16 | CCOC(=O)c1ccc(NCCOC)c([N+](=O)[O-])c1 | -0.772
17 | Cc1ccc(Cn2c(=N)c(C#N)cc3c(=O)n4cccc(C)c4nc32)cc1 | -13
18 | COC(=O)c1nnn(CC(=O)Nc2cccc(OC)c2)c1C(=O)OC | 21.9
19 | Cc1ccc(/C=N/NC(=O)c2ccc(NC(=O)c3ccc(Cl)cc3)cc2)o1 | 22.9
20 | CCOC(=O)N1CCN(C(=O)c2ccc3c(=O)n(Cc4ccc(Cl)cc4)c(=S)[nH]c3c2)CC1 | 4.36
21 | COc1ccc(OC)c(NC(=O)Cc2c(C(=O)O)n(C)c3ccccc23)c1 | 7.75
22 | COCCNC(=O)c1c[nH]c2ccc(S(=O)(=O)N3CCc4ccccc43)cc2c1=O | 6.11

Row | SMILES | hERG current change (%, negative = inhibition) at 10uM [%]
23 | COc1cc(OC)cc(C(=O)NCC(=O)OCC(=O)Nc2ccc3c(c2)OCO3)c1 | -2.91
24 | Cc1ccc(C)c(Oc2cc(NN3CCCCC3)c([N+](=O)[O-])cc2[N+](=O)[O-])c1 | 10.6
25 | O=C(O)CCN1Cc2ccccc2C1=O | 16.3
26 | c1ccc2sc(NCC3CCCO3)nc2c1 (centres unmarked) | 28.8
27 | CSc1ccc(CNc2ccc(C)c(C)c2)cc1 | 2.27
28 | COc1ccccc1N(C)S(=O)(=O)c1ccc(C(=O)Nc2ccncc2)cc1 | -28.6
29 | Cc1cc(C)c(C)c(S(=O)(=O)N2CCN(c3ccc(O)cc3)CC2)c1C | 21
30 | O=c1[nH]c2ccccc2c(O)c1O | 10.9
31 | CCn1c(SCC(=O)Nc2ccccc2)nc2c1c(=O)n(C)c(=O)n2C | -9.42
32 | C/C(=N\NC(=O)NC1CCCCC1)c1ccc(OC(F)F)cc1OC(F)F | 23.4
33 | COc1ccc(S(=O)(=O)N2c3ccccc3OCC2C(C)(C)C)cc1 (centres unmarked) | 18.8
34 | O=C(C1CC1)N1N=C(C2CCCCC2)CC1(O)C(F)(F)F (centres unmarked) | -31.9
35 | Cc1c(C(=O)O)oc2c1/C(=N\O)CC(C)(C)C2 | -4.22
36 | O=C(CN(C(=O)CNC(=O)c1cccs1)c1ccc(F)cc1)NC1CCCC1 | 10.4
37 | Cc1sc2c(c1C)C(=O)/C(=C\Nc1ccccn1)S(=O)(=O)N2C | 13
38 | Cc1nn(-c2ccccc2)c2sc(C(=O)N3CCCCC3)cc12 | -4.52
39 | CC1Cc2ccccc2N1C(=S)Nc1ccc(S(N)(=O)=O)cc1 (centres unmarked) | 6.85
40 | Cc1c(NC(=O)CNCc2ccc3c(c2)OCO3)c(=O)n(-c2ccccc2)n1C.O=C(O)C(=O)O | 1.24
41 | Cc1ccc(/C=N/N=C2/NC(=O)C(CC(=O)N3CCOCC3)S2)cc1 (centres unmarked) | 11
42 | Cn1cccc1/C=N/NC(=O)Cn1cnc2ccccc21 | -9.89
43 | O=C(O)c1cccc(S(=O)(=O)N2CCOCC2)c1 | 2.52
44 | COC(=O)c1ccc(-c2noc(CN(Cc3ccccn3)CC3CCCO3)n2)cc1 (centres unmarked) | -75
